Reference: PubChem BioAssay AID1476 (National Center for Advancing Translational Sciences (NCATS), 2009)
Hit rate of the full screen: of about 200,000 compounds, about 4,500 (2.2%) were called active. The shares of active, inactive and inconclusive entries below differ from those in the screen. The call rests on the fitted dose curve; in most records, active means well fitted inhibition curve with a large enough effect; inconclusive means small, poorly fitted or top-dose-only effect, or effect the other way; inactive means flat fitted curve, though single readings scatter. Potencies beside an inconclusive call are fits to weak or partial responses and may not hold up.

Biological target: Cruzipain (Trypanosoma cruzi) (UniProt P25779)
Assay: qHTS Assay for Promiscuous and Specific Inhibitors of Cruzain (without detergent); further: nearly all actives have a fitted effect of over 40% in size;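 on max response, negative = inhibition: plate controls were enzyme without inhibitor for no effect and buffer without enzyme for full effect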
Conditions: purified cruzain, Z-FR-AMC fluorescence, no detergent
Method in brief: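 Detergent-free condition (0.00005% Triton X-100) in acetate buffer pH 5.5 with DTT. 1.5 nM enzyme and compound were pre-mixed 15 min, then 2 uM Z-FR-AMC substrate added; reaction progress from fluorescence change between first and third reads (60 s).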
Potency means the concentration at half of the fitted maximal effect; tags describe the fitted curve by direction and shape.

UniProt P25779, sequence (P25779 whole entry, looked up): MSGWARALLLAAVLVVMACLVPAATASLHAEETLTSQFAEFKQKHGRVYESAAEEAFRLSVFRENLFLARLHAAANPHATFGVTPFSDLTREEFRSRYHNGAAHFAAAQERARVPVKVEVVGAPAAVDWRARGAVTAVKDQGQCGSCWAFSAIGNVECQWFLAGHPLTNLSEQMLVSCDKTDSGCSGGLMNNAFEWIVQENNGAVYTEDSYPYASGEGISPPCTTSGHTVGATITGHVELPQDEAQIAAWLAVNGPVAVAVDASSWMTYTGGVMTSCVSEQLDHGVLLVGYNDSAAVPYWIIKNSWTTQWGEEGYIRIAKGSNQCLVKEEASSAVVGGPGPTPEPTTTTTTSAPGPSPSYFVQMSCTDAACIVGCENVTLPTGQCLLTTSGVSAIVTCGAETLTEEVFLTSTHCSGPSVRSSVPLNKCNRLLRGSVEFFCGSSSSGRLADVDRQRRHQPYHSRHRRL

SMILES | max response, negative = inhibition | Potency
O=C(NCc1ccc(F)cc1)c1c(O)nc2ccccn2c1=O | inactive: -2.92% | –
COc1ccc(Oc2ncc3nc(-c4cc(F)cc(F)c4)c(=O)n(C[C@H]4CCCO4)c3n2)cc1 | inactive: 2.25% | –
CCOc1ccc(-n2c(=O)c3c4c(sc3n(CC(=O)Nc3cccc(C(F)(F)F)c3)c2=O)CCCCC4)cc1 | inactive: -17.2% | –
CN(C)c1ccc(P(=O)(Nc2ccccc2)N2CCOCC2)c(NC(=O)c2cccs2)c1 (centres undefined) | – | inconclusive: 39.8 µM [activator, single point]
COC(=O)c1ccc(C(=O)OC)c(NC(=O)COC(=O)C2CCC(C(C)(C)C)CC2)c1 (centres undefined) | – | inconclusive: 7.94 µM [inhibitor, full curve, poor fit]
CCOc1cc(C2Nc3cccc4cccc(c34)N2)ccc1O | – | active: 15.8 µM
O=C(N/N=C/c1cn(-c2ccccc2)nc1-c1ccccc1)c1ccco1 | inactive: 3.63% | –
CC(C)(C)c1ccc(-c2c(C#N)c(N)nc3c2CCCC3)s1 | – | inconclusive: 39.8 µM [inhibitor, single point]
CCOC(=O)c1c2c(c(=S)n(-c3ccccc3)c1N)CCC2 | – | inconclusive: 31.6 µM [inhibitor, single point]
CCCCN(C)C(=O)C1CCC(CNS(=O)(=O)c2ccc(Cl)cc2)CC1 (centres undefined) | – | inconclusive: 31.6 µM [activator, single point]
Cc1ccc(NC(=O)CCS(=O)(=O)c2cc3c4c(c2)CCN4C(=O)CC3)c(C)c1 | inactive: 20.3% | –
Cc1cc(SCC(=O)NCCC2=CCCCC2)nc2ccccc12 | – | inconclusive: 39.8 µM [inhibitor, single point]
C=CCn1c(=O)c2ccccc2n2c(SC(C)C(=O)Nc3nc(-c4ccccc4)cs3)nnc12 (centres undefined) | – | inconclusive: 10 µM [inhibitor, partial curve]
Cc1cc(C)c(NC(=O)Cc2ccc(-n3cccc3)cc2)c(C)c1 | – | inconclusive: 31.6 µM [inhibitor, single point]
Cc1ccc(NC(=O)CN2C(=O)C3(SCC(=O)N3c3cccc(Cl)c3)c3ccccc32)cc1C (centres undefined) | – | active: 20 µM
Cc1nn(-c2ccccc2)c2sc(C(=O)Nc3ccccc3Br)cc12 | – | inconclusive: 20 µM [inhibitor, single point]
CCCCN(C(=O)CSc1nnc(Nc2ccc(C)c(C)c2)s1)c1c(N)n(Cc2ccccc2)c(=O)[nH]c1=O | – | inconclusive: 39.8 µM [inhibitor, single point]
Cn1c(N)c(C(=O)COC(=O)C23CC4CC(CC(C4)C2)C3)c(=O)n(C)c1=O | – | inconclusive: 39.8 µM [activator, single point]
COC(=O)c1c(C)oc2ccc(N(C(=O)c3ccncc3)S(=O)(=O)c3ccc(C)cc3)cc12 | – | inconclusive: 39.8 µM [activator, single point]
COc1ccccc1CNC(=O)CN(c1ccc(C)cc1)S(=O)(=O)c1c(C)n[nH]c1C | – | inconclusive: 20 µM [activator, single point]
COc1cccc(CSc2nc3sc(C)c(C)c3c(=O)n2Cc2ccco2)c1 | – | active: 25.1 µM
CCOc1ccccc1NS(=O)(=O)c1ccc(-c2cnc(C3CC3)o2)cc1 | – | inconclusive: 25.1 µM [activator, single point]

SMILES | max response, negative = inhibition | Potency
Cc1cccc2sc(NC(=O)C3CCCN(S(=O)(=O)c4cccc5nonc45)C3)nc12 (centres undefined) | – | inconclusive: 31.6 µM [inhibitor, single point]
Cc1cc(C)nc(-n2ncc3c2CC(c2ccc(C(C)C)cc2)CC3=O)n1 (centres undefined) | – | inconclusive: 39.8 µM [activator, single point]
CC1=C(C(=O)Nc2cccnc2)C(c2ccccc2)n2nc(-c3ccc(O)cc3)nc2N1 (centres undefined) | inactive: -4.23% | –
Cc1cc(C(=O)Nc2nc3c(C)cccc3s2)c(C)o1 | – | inconclusive: 31.6 µM [inhibitor, single point]
C=Cc1ccc(Cn2c(C(=O)O)c(CNCc3ccccc3)c3ccc(C)cc32)cc1 | inactive: 12.1% | –
CC(=O)N1CCCc2cc(S(=O)(=O)N3CCCC(C(=O)Nc4cc(Cl)ccc4C)C3)ccc21 (centres undefined) | – | inconclusive: 39.8 µM [activator, single point]
COc1ccc(N(CC(=O)Nc2ccc3c(c2)OCO3)S(=O)(=O)c2ccccc2)c(OC)c1 | – | inconclusive: 31.6 µM [inhibitor, single point]
COc1ccc(NC(=O)c2ccccc2NC(=O)CSc2ccc(Cl)cc2)cc1 | – | active: 12.6 µM
CC(=O)C1=NN(c2ccccc2)C(c2cccs2)N1c1ccc(N(C)C)cc1 (centres undefined) | – | inconclusive: 39.8 µM [inhibitor, single point]
O=C(NCCc1ccccc1)c1ccc2c(c1)N(Cc1ccccc1F)C(=O)c1ccccc1S2=O (centres undefined) | – | inconclusive: 39.8 µM [inhibitor, single point]
COC(=O)c1c(NC(=O)CN2CCCc3ccccc32)sc(C)c1C | – | inconclusive: 31.6 µM [inhibitor, single point]
CC(=O)Nc1ccc(NC(=O)c2oc3ccc4c(c3c2C)C(=O)CC(C)(C)O4)cc1 | – | inconclusive: 31.6 µM [activator, single point]
c1ccc(-c2ncc(CSc3nncn3-c3ccccc3)s2)cc1 | inactive: 11.7% | –
O=C(N/N=C/C=C/c1ccccc1[N+](=O)[O-])c1cc(-c2ccccc2)n[nH]1 | – | active: 25.1 µM
C=C[C@](C)(O)CCC1C(=C)CC(O)C2C(C)(C)CCCC12C (some centres undefined) | – | inconclusive: 31.6 µM [activator, single point]
CCS(=O)(=O)c1nc(S(=O)(=O)c2ccc(Cl)cc2)c(NCc2ccccc2Cl)s1 | inactive: -30% | –
COC(=O)c1ccc(-c2csc(NC(=O)c3ccc(S(=O)(=O)N4CCc5ccccc5C4)cc3)n2)cc1 | – | active: 6.31 µM
CCOc1ccc(CNC(=O)c2ccc(Sc3ccc(Cl)cc3)c(NC(C)=O)c2)cc1OC | – | inconclusive: 39.8 µM [activator, single point]
Cc1onc(-c2ccccc2Cl)c1C(=O)Nc1sc2c(c1C#N)CCC2 | – | inconclusive: 25.1 µM [inhibitor, single point]
CCOC(=O)CSc1nc2ccc(NC(=O)c3ccccc3F)cc2s1 | inactive: -5.82% | –
Clc1ccc(-c2cc(COc3ccc4ccccc4c3)no2)cc1 | – | inconclusive: 31.6 µM [inhibitor, single point]
CCOC(=O)c1sc(NC(=O)c2cc(-c3ccc(F)cc3)on2)c(C(=O)OCC)c1C | inactive: 0.779% | –

SMILES | max response, negative = inhibition | Potency
COC(=O)C1=C(N)N(c2ccccc2C(F)(F)F)C2=C(C(=O)CCC2)C1c1ccc2c(c1)OCO2 (centres undefined) | – | inconclusive: 39.8 µM [activator, single point]
COc1cccc(N(C(=O)c2nc3nccc(C)n3n2)c2nc3ccccc3s2)c1 | – | inconclusive: 39.8 µM [activator, single point]
CC1=C(C(=O)Nc2ccc(C)cc2C)C(c2ccccc2)n2ncc(C(=O)Nc3ccccc3)c2N1 (centres undefined) | – | inconclusive: 39.8 µM [inhibitor, single point]
Cc1noc(C)c1COc1ccc(C(=O)OCC(=O)Nc2ccc3ccccc3c2)cc1 | – | inconclusive: 31.6 µM [inhibitor, single point]
CCCCCCCCSc1nnc(CSc2nc3nc(C)cc(C)n3n2)o1 | – | inconclusive: 31.6 µM [activator, single point]
CCC(C(=O)Nc1cc(-c2nc3cccnc3s2)ccc1C)c1ccccc1 (centres undefined) | – | inconclusive: 31.6 µM [inhibitor, single point]
CCN(CC)C(=O)N[C@@H]1C[C@@H]2c3cccc4[nH]cc(c34)C[C@H]2N(C)C1 | – | inconclusive: 20 µM [inhibitor, single point]
Cc1ccc(Cl)cc1NC(=O)Cn1c(=O)c2ccccc2n2nncc12 | inactive: 10.7% | –
Cc1ccc(NC(=O)CC2S/C(=N/N=C/c3c[nH]c4ccccc34)NC2=O)cc1 (centres undefined) | – | active: 20 µM
CCC(C)N(C(=O)CSc1nc(-c2ccccc2)cs1)C1CCS(=O)(=O)C1 (centres undefined) | – | inconclusive: 39.8 µM [activator, single point]
COc1cccc(CNC(=O)C2CCN(c3nnc(-n4c(C)ccc4C)s3)CC2)c1 | inactive: 5.74% | –
Cc1cccc(-n2ncc3c(NC4CCCC4)ncnc32)c1 | inactive: -11.5% | –
C=Cc1c(C)c2cc3[nH]c(cc4nc(cc5nc(cc1[nH]2)C(C)=C5CCC(=O)O)C(CCC(=O)O)=C4C)c(C)c3C=C | – | inconclusive: 20 µM [activator, partial curve]
CC(C)(C)c1ccc(C(=O)N2CCCN(C(=O)c3ccc(C(C)(C)C)cc3)CC2)cc1 | inconclusive: 96.6% [activator] | –
CCc1ccccc1NS(=O)(=O)c1ccc2c(c1)OCC(C(=O)N1CCCC1)O2 (centres undefined) | inactive: 13.8% | –
CCCN(CCC)C(=O)CSc1nc2sc3c(c2c(=O)n1-c1ccccc1)CCN(C(C)=O)C3 | – | inconclusive: 39.8 µM [activator, single point]
CC(=O)Nc1cccc(NC(=O)c2c(-c3ccccc3)c(-c3ccccc3)nn(C)c2=O)c1 | – | inconclusive: 39.8 µM [activator, single point]
CCc1ccc(Nc2nc(N)nc(CSc3nc4ccccc4s3)n2)cc1 | – | inconclusive: 15.8 µM [inhibitor, single point]
O=C(NCc1cccc(F)c1)c1cccc(NC(=O)c2nsc3ccccc23)c1 | – | inconclusive: 39.8 µM [inhibitor, single point]
Cc1[nH]c(=O)[nH]c(=O)c1S(=O)(=O)N1CCCC(C(=O)NCCc2ccc(Cl)cc2)C1 (centres undefined) | inactive: 2.75% | –
